From US9833444B2 (priority 2013, dated 2017) come the findings set out here.

For the test, the target named is SMases of B. cereus (Bacillus cereus, UniProt P11889). As to conditions: compound 40 μM. As to the method: Thus, knowing the importance of PLCs in infections by some bacteria, compounds 5 and 6 (40 μM) were tested in face of the hydrolytic activity of SMases of B. cereus and Stahylococcus aureus.

As for `Cc1cc(OS(=O)(=O)c2ccc(Cl)cc2)cc2c1C(=O)C(=Cc1cccnc1)O2` [Compound 6, 4-methyl-3-oxo-2-(3-pyridylmethylene)benzo[3,4-b]furan-6-yl-4-chlorobenzenesulphonate], the “reduction of hydrolytic activity of SMase of B. cereus” value is on record as “efficiently reduced”.
The same measure for `Cc1[nH]c2ccccc2c1/C=N/NS(=O)(=O)c1ccc(Br)cc1` [Compound 5, 4-bromo-N-[(E)-(2-methyl-1H-indol-3-yl)methyleneamino]benzenosulfonamide]: “efficiently reduced”.
